# Assay results taken from the supplement of paper PMC8728848.
# The other results are listed elsewhere or left out.
# B1: WGA (Triticum vulgare) (protein)
# chain: QRCGEQGSNMECPNNLCCSQYGYCGMGGDYCGKGCQNGACWTSKRCGSQAGGATCPNNHCCSQYGHCGFGAEYCGAGCQGGPCRADIKCGSQSGGKLCPNNLCCSQWGFCGLGSEFCGGGCQSGACSTDKPCGKDAGGRVCTNNYCCSKWGSCGIGPGYCGAGCQSGGCDAVFAGAITANSTLLAE
# Experiments:
# Test in all cases: glycan array binding signal (z-score within array); higher = stronger binding
# Settings in all cases: glycan notation: IUPAC condensed, linker removed
# [1] = molecular target: Gal(b1-3)GlcNAc(b1-3)Gal(b1-4)[Fuc(a1-3)]GlcNAc(b1-6)[Gal(b1-3)GlcNAc(b1-3)]Gal(b1-4)Glc
# Outline: (§1)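 Columns mapping to the same glycan were averaged after glycan names were converted to IUPAC-condensed notation. The data come from 3228 arrays in the Consortium for Functional Glycomics database, limited to those with an available protein sequence. Binding is reported as a within-array Z-score averaged across arrays of one protein sequence and across linkers.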
# [2] = molecular target: Gal(b1-3)GlcNAc(b1-3)GalNAc
# Outline: as §1
# [3] = molecular target: Gal(b1-3)GlcNAc(b1-6)Gal(b1-4)GlcNAc
# Outline: as §1
# [4] = molecular target: Gal(b1-3)GlcNAc(b1-6)GalNAc
# Outline: as §1
# [5] = molecular target: Gal(b1-3)GlcNAc(b1-6)[Gal(b1-3)]GalNAc
# Outline: as §1
# [6] = molecular target: Gal(b1-3)GlcNAc6S
# Outline: as §1
# [7] = molecular target: Gal(b1-3)[Fuc(a1-4)]GlcNAc
# Outline: as §1
# [8] = molecular target: Gal(b1-3)[Fuc(a1-4)]GlcNAc(b1-2)Man
# Outline: as §1
# [9] = molecular target: Gal(b1-3)[Fuc(a1-4)]GlcNAc(b1-2)Man(a1-3)[Gal(b1-3)[Fuc(a1-4)]GlcNAc(b1-2)Man(a1-6)]Man(b1-4)GlcNAc(b1-4)[Fuc(a1-6)]GlcNAc
# Outline: as §1
# [10] = molecular target: Gal(b1-3)[Fuc(a1-4)]GlcNAc(b1-3)Gal(b1-3)[Fuc(a1-4)]GlcNAc
# Outline: as §1
# [11] = molecular target: Gal(b1-3)[Fuc(a1-4)]GlcNAc(b1-3)Gal(b1-4)GlcNAc
# Outline: as §1
# [12] = molecular target: Gal(b1-3)[Fuc(a1-4)]GlcNAc(b1-3)Gal(b1-4)[Fuc(a1-3)]GlcNAc
# Outline: as §1
# [13] = molecular target: Gal(b1-3)[Fuc(a1-4)]GlcNAc(b1-6)GalNAc
# Outline: as §1
# [14] = molecular target: Gal(b1-3)[GlcNAc(b1-6)]GalNAc
# Outline: as §1
# [15] = molecular target: Gal(b1-3)[Neu5Ac(a2-6)]GalNAc
# Outline: as §1
# [16] = molecular target: Gal(b1-3)[Neu5Ac(a2-6)]GlcNAc(b1-4)Gal(b1-4)Glc
# Outline: as §1
# [17] = molecular target: Gal(b1-3)[Neu5Ac(a2-6)]GlcNAc(b1-6)Gal(b1-4)Glc
# Outline: as §1
# [18] = molecular target: Gal(b1-3)[Neu5Ac(b2-6)]GalNAc
# Outline: as §1
# [19] = molecular target: Gal(b1-4)Gal
# Outline: as §1
# [20] = molecular target: Gal(b1-4)GalNAc(a1-3)[Fuc(a1-2)]Gal(b1-4)GlcNAc
# Outline: as §1
# [21] = molecular target: Gal(b1-4)GalNAc(b1-3)[Fuc(a1-2)]Gal(b1-4)GlcNAc
# Outline: as §1
# [22] = molecular target: Gal(b1-4)Glc
# Outline: as §1
# [23] = molecular target: Gal(b1-4)Glc6S
# Outline: as §1
# [24] = molecular target: Gal(b1-4)GlcNAc
# Outline: as §1
# [25] = molecular target: Gal(b1-4)GlcNAc(a1-6)Gal(b1-4)GlcNAc
# Outline: as §1
# [26] = molecular target: Gal(b1-4)GlcNAc(b1-2)Man
# Outline: as §1
# [27] = molecular target: Gal(b1-4)GlcNAc(b1-2)Man(a1-3)Man(b1-4)GlcNAc(b1-4)GlcNAc
# Outline: as §1
# [28] = molecular target: Gal(b1-4)GlcNAc(b1-2)Man(a1-3)[Gal(b1-4)GlcNAc(b1-2)Man(a1-6)]Man(b1-4)GlcNAc(b1-4)GlcNAc
# Outline: as §1
# [29] = molecular target: Gal(b1-4)GlcNAc(b1-2)Man(a1-3)[Gal(b1-4)GlcNAc(b1-2)Man(a1-6)]Man(b1-4)GlcNAc(b1-4)[Fuc(a1-6)]GlcNAc
# Outline: as §1
# [30] = molecular target: Gal(b1-4)GlcNAc(b1-2)Man(a1-3)[Gal(b1-4)GlcNAc(b1-2)Man(a1-6)][Gal(b1-4)GlcNAc(b1-4)]Man(b1-4)GlcNAc(b1-4)[Fuc(a1-6)]GlcNAc
# Outline: as §1
# [31] = molecular target: Gal(b1-4)GlcNAc(b1-2)Man(a1-3)[Gal(b1-4)GlcNAc(b1-2)Man(a1-6)][GlcNAc(b1-4)]Man(b1-4)GlcNAc(b1-4)[Fuc(a1-6)]GlcNAc
# Outline: as §1
# [32] = molecular target: Gal(b1-4)GlcNAc(b1-2)Man(a1-3)[GlcNAc(b1-2)Man(a1-6)]Man(b1-4)GlcNAc(b1-4)GlcNAc
# Outline: as §1
# [33] = molecular target: Gal(b1-4)GlcNAc(b1-2)Man(a1-3)[GlcNAc(b1-4)][Gal(b1-4)GlcNAc(b1-2)Man(a1-6)]Man(b1-4)GlcNAc(b1-4)GlcNAc
# Outline: as §1
# [34] = molecular target: Gal(b1-4)GlcNAc(b1-2)Man(a1-3)[Man(a1-6)]Man(b1-4)GlcNAc(b1-4)GlcNAc
# Outline: as §1
# [35] = molecular target: Gal(b1-4)GlcNAc(b1-2)Man(a1-6)Man(b1-4)GlcNAc(b1-4)GlcNAc
# Outline: as §1
# [36] = molecular target: Gal(b1-4)GlcNAc(b1-2)Man(a1-6)[GlcNAc(b1-2)Man(a1-3)]Man(b1-4)GlcNAc(b1-4)GlcNAc
# Outline: as §1
# [37] = molecular target: Gal(b1-4)GlcNAc(b1-2)Man(a1-6)[Man(a1-3)]Man(b1-4)GlcNAc(b1-4)GlcNAc
# Outline: as §1
# [38] = molecular target: Gal(b1-4)GlcNAc(b1-2)[Gal(b1-4)GlcNAc(b1-4)]Man(a1-3)[Gal(b1-4)GlcNAc(b1-2)Man(a1-6)]Man(b1-4)GlcNAc(b1-4)GlcNAc
# Outline: as §1
# [39] = molecular target: Gal(b1-4)GlcNAc(b1-2)[Gal(b1-4)GlcNAc(b1-4)]Man(a1-3)[Gal(b1-4)GlcNAc(b1-2)[Gal(b1-4)GlcNAc(b1-6)]Man(a1-6)]Man(b1-4)GlcNAc(b1-4)GlcNAc
# Outline: as §1
# [40] = molecular target: Gal(b1-4)GlcNAc(b1-2)[Gal(b1-4)GlcNAc(b1-4)]Man(a1-3)[GlcNAc(b1-4)][Gal(b1-4)GlcNAc(b1-2)Man(a1-6)]Man(b1-4)GlcNAc(b1-4)GlcNAc
# Outline: as §1
# [41] = molecular target: Gal(b1-4)GlcNAc(b1-2)[Gal(b1-4)GlcNAc(b1-4)]Man(a1-3)[GlcNAc(b1-4)][Gal(b1-4)GlcNAc(b1-2)[Gal(b1-4)GlcNAc(b1-6)]Man(a1-6)]Man(b1-4)GlcNAc(b1-4)GlcNAc
# Outline: as §1
# [42] = molecular target: Gal(b1-4)GlcNAc(b1-2)[Gal(b1-4)GlcNAc(b1-6)]Man(a1-6)[Gal(b1-4)GlcNAc(b1-2)Man(a1-3)]Man(b1-4)GlcNAc(b1-4)GlcNAc
# Outline: as §1
# [43] = molecular target: Gal(b1-4)GlcNAc(b1-2)[Gal(b1-4)GlcNAc(b1-6)]Man(a1-6)[Gal(b1-4)GlcNAc(b1-2)Man(a1-3)]Man(b1-4)GlcNAc(b1-4)[Fuc(a1-6)]GlcNAc
# Outline: as §1
# [44] = molecular target: Gal(b1-4)GlcNAc(b1-2)[Gal(b1-4)GlcNAc(b1-6)]Man(a1-6)[GlcNAc(b1-4)][Gal(b1-4)GlcNAc(b1-2)Man(a1-3)]Man(b1-4)GlcNAc(b1-4)GlcNAc
# Outline: as §1
# [45] = molecular target: Gal(b1-4)GlcNAc(b1-2)[Gal(b1-4)GlcNAc(b1-6)]Man(a1-6)[GlcNAc(b1-4)][Gal(b1-4)GlcNAc(b1-2)[Gal(b1-4)GlcNAc(b1-4)]Man(a1-3)]Man(b1-4)GlcNAc(b1-4)[Fuc(a1-6)]GlcNAc
# Outline: as §1
binder,measurement,setting,value
B1,glycan array binding signal (z-score),[1],-0.322
same,glycan array binding signal (z-score),[2],-0.358
same,glycan array binding signal (z-score),[3],-0.362
same,glycan array binding signal (z-score),[4],-0.345
same,glycan array binding signal (z-score),[5],-0.339
same,glycan array binding signal (z-score),[6],-0.379
same,glycan array binding signal (z-score),[7],-0.353
same,glycan array binding signal (z-score),[8],-0.278
same,glycan array binding signal (z-score),[9],-0.172
same,glycan array binding signal (z-score),[10],-0.336
same,glycan array binding signal (z-score),[11],-0.209
same,glycan array binding signal (z-score),[12],-0.349
same,glycan array binding signal (z-score),[13],-0.309
same,glycan array binding signal (z-score),[14],-0.088
same,glycan array binding signal (z-score),[15],-0.353
same,glycan array binding signal (z-score),[16],-0.354
same,glycan array binding signal (z-score),[17],-0.717
same,glycan array binding signal (z-score),[18],-0.376
same,glycan array binding signal (z-score),[19],-0.369
same,glycan array binding signal (z-score),[20],0.213
same,glycan array binding signal (z-score),[21],-0.099
same,glycan array binding signal (z-score),[22],-0.348
same,glycan array binding signal (z-score),[23],-0.347
same,glycan array binding signal (z-score),[24],0.012
same,glycan array binding signal (z-score),[25],-0.339
same,glycan array binding signal (z-score),[26],-0.326
same,glycan array binding signal (z-score),[27],0.613
same,glycan array binding signal (z-score),[28],0.813
same,glycan array binding signal (z-score),[29],-0.23
same,glycan array binding signal (z-score),[30],-0.047
same,glycan array binding signal (z-score),[31],-0.064
same,glycan array binding signal (z-score),[32],-0.131
same,glycan array binding signal (z-score),[33],-0.116
same,glycan array binding signal (z-score),[34],-0.182
same,glycan array binding signal (z-score),[35],-0.347
same,glycan array binding signal (z-score),[36],-0.116
same,glycan array binding signal (z-score),[37],-0.295
same,glycan array binding signal (z-score),[38],-0.212
same,glycan array binding signal (z-score),[39],-0.321
same,glycan array binding signal (z-score),[40],-0.325
same,glycan array binding signal (z-score),[41],-0.314
same,glycan array binding signal (z-score),[42],-0.185
same,glycan array binding signal (z-score),[43],-0.214
same,glycan array binding signal (z-score),[44],-0.008
same,glycan array binding signal (z-score),[45],-0.351
